Where “and” joins values, the source holds several entries; their conditions need not be identical. Equal values may be shown once. In all, about 420,000 compounds went through this assay and about 64,000 (15%) were called active. The inconclusive results got no clear call from the source; some entries with a clear call stand among them for comparison. The call rests on the fitted dose curve; in most records, active means well fitted inhibition curve with a large enough effect; inconclusive means small, poorly fitted or top-dose-only effect; inactive means flat fitted curve, though single readings scatter. No potency is given beside an inconclusive call; the fits are too rough.
Experiment: qHTS for Inhibitors of human tyrosyl-DNA phosphodiesterase 1 (TDP1): qHTS in cells in absence of CPT; further: nearly all actives have a fitted effect of over 55% in size
Settings: DT40 Tdp1-/- hTDP1 cells, no CPT, ATP luminescence, 48 h; activity change, negative = growth inhibition: at 46.2 µM (top of the series) unless noted
Method in brief: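 Growth of hTDP1-complemented DT40 Tdp1-knockout cells is measured by ATP luminescence after at least 48 hr compound exposure at 37 °C, with DMSO substituting for the 20 nM CPT used in the parallel screen.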
With `Cc1nn(-c2ccccc2)c(C)c1/C=N/NC(=O)c1cccs1` the Potency was active: 14.6 µM. With `CCN(C(=O)C1CCCN(c2ncnc3c2nc2n3CCCCC2)C1)c1cccc(Cl)c1` (stereo not drawn) the Potency was active: 5.8 µM and active: 10.3 µM. In the case of `CCCCCCN1C2=NCCN2c2ccccc21`, the Potency is reported as inconclusive [inhibitor, single point]. For `COc1ccccc1NC(=O)C1=C(C)Nc2nc(SCc3ccccc3)nn2C1c1ccncc1` (stereo not drawn), the Potency was inconclusive [inhibitor, single point]. In the case of `Cc1ccc(NS(=O)(=O)c2ccc(NC(=O)N3CCCCC3)cc2)cc1`, the Potency is reported as inconclusive [inhibitor, partial curve]. In the case of `CCCN(C/C=C/I)C1CCc2cccc(O)c2C1` (stereo not drawn), the Potency is reported as active: 14.6 µM. For `CC(C)c1ccc(NC(=O)N(CCc2nc3ccccc3[nH]2)C2CCCC2)cc1`, the Potency was inconclusive [inhibitor, single point]. With `Cn1c(-c2ccc(C=O)s2)nc2c3ccccc3c3ccccc3c21` the Potency was inconclusive [inhibitor, single point]. With `FC(F)(F)c1ccccc1-c1ccc2ncnc(N3CCOCC3)c2c1` the Potency was inconclusive [inhibitor, partial curve, poor fit]. With `COc1ccc(NS(=O)(=O)c2ccc(-c3ccccn3)s2)cc1` the Potency was inconclusive [inhibitor, partial curve]. With `CCCSc1nc(NCc2ccco2)c2c3c(sc2n1)COC(C)(CC)C3` (stereo not drawn) the activity change, negative = growth inhibition was inconclusive: -31.8% [inhibitor]. For `COc1ccc(NC(=O)CSc2nnc(-c3ccccc3F)n2C2CC2)cc1S(N)(=O)=O`, the activity change, negative = growth inhibition was inconclusive: -35.4% [inhibitor]. With `NS(=O)(=O)c1ccc(CCNC(=O)COC(=O)C2CCN(c3ccc(C(F)(F)F)cn3)CC2)cc1` the Potency was “inactive”. With `O=C(c1cccc2nccnc12)N1CCCC(Nc2ccc(F)c(F)c2)C1` (stereo not drawn) the Potency was “inactive”. With `CCOc1ccccc1N1CCN(C(=O)CCCN2C(=O)c3cccc4cccc(c34)C2=O)CC1` the Potency was active: 20.6 µM. With `Cc1cnc(C2OCCO2)c2cccc([N+](=O)[O-])c12` the Potency was inconclusive [inhibitor, partial curve]. With `Cc1nn(-c2ccccc2)c2c1C(c1ccc([N+](=O)[O-])cc1)C(C#N)=C(N)O2` (stereo not drawn) the Potency was inconclusive [inhibitor, single point]. In the case of `O=C(COC(=O)CCC(=O)c1cccs1)NCc1ccco1`, the Potency is reported as “inactive”. For `Cc1ccc(NC(=O)c2sc3nc[nH]c(=O)c3c2C)c(C)c1`, the Potency was “inactive”. In the case of `CC1CCCCN1C(=O)CSc1nnc(-c2c[nH]c3ccccc23)o1` (stereo not drawn), the Potency is reported as inconclusive [inhibitor, partial curve]. With `CCC(CC)n1[nH]c(=O)cc1N` the Potency was “inactive”. In the case of `O=C(CSCc1ccc(F)cc1)Nc1ccc(N2CCOCC2)cc1N1CCOCC1`, the Potency is reported as inconclusive [inhibitor, single point]. For `COc1cc(OC)c(N(C)C(=O)c2sc3nc4n(c(=O)c3c2C)CCCCC4)cc1Cl`, the Potency was “inactive”. With `CCOC(=O)C1CCCCN1Cc1ccc(F)cc1` (stereo not drawn) the Potency was “inactive”. In the case of `C/C=C/c1ccc(OCC(O)CN2CCCCCCC2)c(OC)c1` (stereo not drawn), the Potency is reported as inconclusive [inhibitor, single point]. With `O=C(Nc1cccc(-c2cn3cccnc3n2)c1)c1cccs1` the Potency was “inactive”. For `COc1ccc(OC)c(C(=O)c2ccc(C(=O)Nc3cccc4ccccc34)cc2)c1`, the Potency was inconclusive [inhibitor, full curve]. For `COC(=O)[C@H]1[C@H](CCc2ccccc2)NC(=O)N(Cc2ccccc2)[C@@H]1C`, the Potency was inconclusive [inhibitor, single point]. With `CC(C)=CCc1c(O)cc2c(c1O)C(=O)CC(c1ccccc1)O2` (stereo not drawn) the Potency was inconclusive [inhibitor, partial curve]. With `CCS(=O)(=O)N1CCN(S(=O)(=O)c2ccc3ccccc3c2)CC1` the Potency was inconclusive [inhibitor, single point]. For `COC(=O)C1CC(c2ccccc2)N(c2ccccc2)O1` (stereo not drawn), the Potency was “inactive”. In the case of `O=c1c2c(nc3cc(-c4cccc(Cl)c4)[nH]n13)CCC2`, the Potency is reported as inconclusive [inhibitor, partial curve, poor fit]. In the case of `COc1ccc(Br)cc1CN(C)CC(=O)NCCc1ccc(S(N)(=O)=O)cc1`, the Potency is reported as inconclusive [inhibitor, single point]. In the case of `Brc1ccc(-c2nc3ccc(Br)cn3c2Cc2ccccc2)cc1`, the Potency is reported as active: 20.6 µM. With `COCCn1c(SCC(=O)c2ccc(CNC(C)=O)o2)nc2ccccc2c1=O` the Potency was inconclusive [inhibitor, single point]. With `NC(=O)c1ccc(NC(=O)c2ccc(CN3CCOCC3)cc2)cc1` the Potency was “inactive”. With `O=C(Nc1ccccc1)c1ccccc1N=Cc1cccc(O)c1` the Potency was inconclusive [inhibitor, partial curve, poor fit]. With `O=c1c2c(-c3cccs3)csc2ncn1/N=C/c1ccc(OC(F)F)cc1` the Potency was inconclusive [inhibitor, single point]. For `S=C(c1ccc(-c2ccc(Br)cc2)o1)N1CCOCC1`, the Potency was inconclusive [inhibitor, partial curve, poor fit]. In the case of `COc1ccc(Nc2nc3ccccc3n3cnnc23)cc1Cl`, the Potency is reported as “inactive”. In the case of `Cc1ccc2[nH]c(=O)c(CN(Cc3ccco3)Cc3nnnn3Cc3ccco3)cc2c1`, the Potency is reported as inconclusive [inhibitor, single point]. For `O=S(=O)(Oc1ccc(Cl)cc1)c1cccc2cccnc12`, the Potency was inconclusive [inhibitor, single point]. For `C[C@@H]1CN([C@H](C)CO)C(=O)CCCn2nncc2CO[C@H]1CN(C)Cc1ccncc1`, the Potency was “inactive”. In the case of `Clc1ccccc1Nc1nc(NCc2cccs2)nc2ccsc12`, the Potency is reported as inconclusive [inhibitor, partial curve, poor fit]. For `Cc1cc(Nc2cc(F)ccc2C)nc(-n2nc(C)cc2C)n1`, the Potency was active: 5.17 µM. For `CC(=O)c1ccccc1-c1ccc2c(c1)CC(CNC(=O)C[C@@H]1C[C@@H](C)NC(=S)N1)O2` (stereo partly drawn), the Potency was “inactive”. In the case of `O=C(Nc1cccc(F)c1)c1cc(S(=O)(=O)N2CCOCC2)cs1`, the Potency is reported as inconclusive [inhibitor, partial curve]. In the case of `Cc1ccc2nc(C3CCCCC3)c(Cc3ccsc3)n2c1`, the Potency is reported as active: 9.2 µM. For `COc1ccccc1-c1nnc2sc(-c3cc4ccccc4o3)nn12`, the Potency was active: 1.03 µM. For `O=C(CCN1C(=O)/C(=C/c2ccc(F)cc2)SC1=S)NCCCn1ccnc1`, the Potency was inconclusive [inhibitor, single point]. With `CCCCCN(C(=O)CCC(=O)OCc1cc(C)ccc1C)c1c(N)n(CCCC)c(=O)[nH]c1=O` the Potency was active: 25.9 µM. For `CCOc1ccc(CCNC(=O)CCn2ccc3cc(S(=O)(=O)N4CCCC4)ccc32)cc1`, the Potency was inconclusive [inhibitor, single point]. In the case of `CN(C)S(=O)(=O)N(CC(=O)NCCSc1ccccc1)c1ccccc1`, the Potency is reported as inconclusive [inhibitor, single point]. In the case of `O=C(COC(=O)c1ccccc1C(=O)N1CCN(c2ccccc2)CC1)NCc1ccccc1`, the Potency is reported as inconclusive [inhibitor, single point]. For `Cc1c(C(=O)N2CCC(C)CC2)c(S(=O)(=O)Nc2ccc(OC(F)(F)F)cc2)c(C)n1C`, the Potency was active: 16.4 µM. In the case of `CC(C)N(Cc1ccccc1)C(=O)CN1C(=O)CSc2ccc(S(=O)(=O)N3CCCC3)cc21`, the Potency is reported as “inactive”. With `CC(=O)Nc1cccc(-c2nc3ccc(NC(C)=O)cc3s2)c1` the Potency was inconclusive [inhibitor, single point]. For `N#CCc1ccc(NS(=O)(=O)c2ccc(C3CCCCC3)cc2)cc1`, the Potency was active: 14.6 µM. For `CCOc1ccc(NC(=O)NC23CC4CC(CC(C4)C2)C3)cc1`, the Potency was active: 23.1 µM. In the case of `CN(C(=O)c1cccc(NC(=O)Cc2cccc(NC(=O)C3CCCN(C(=O)c4ccccc4)C3)c2)c1)C1CCC1` (stereo not drawn), the Potency is reported as inconclusive [inhibitor, single point]. With `CC(C)c1ccc(-n2c(-c3ccccc3)c[n+]3c2CCc2ccccc2-3)cc1` the Potency was active: 0.0326 µM. For `O=C(c1ccccc1)c1ccsc1C(=O)c1ccccc1`, the Potency was inconclusive [inhibitor, partial curve, poor fit]. With `Cc1cc(C(=O)NC(C)C2CC2)c(Cl)cc1Cl` (stereo not drawn) the Potency was “inactive”. With `CCC1CCc2c(sc(N)c2C(N)=O)C1` (stereo not drawn) the Potency was inconclusive [inhibitor, single point]. For `Cc1cc(C)nc(/N=C(\N)Nc2ccc3c(c2)OCCO3)n1`, the Potency was inconclusive [inhibitor, single point]. In the case of `Cc1ccc(S(=O)(=O)N2CCC3(CC2)OCCO3)cc1`, the Potency is reported as “inactive”. For `CCOc1ccc(NC(=O)CN(C)C(=O)C(C)N2C(=O)c3ccccc3C2=O)cc1OCC` (stereo not drawn), the Potency was “inactive”. For `CC(C)CC(=O)Nc1c(C(=O)N2CCN(Cc3ccccc3)CC2)oc2ccccc12`, the Potency was “inactive”. With `COc1cccc(OCC(=O)Nc2ccccc2-c2ccccc2)c1` the Potency was inconclusive [inhibitor, single point]. In the case of `COc1ccc(/C=N/NC(=O)c2nc(-c3ccccc3)n(-c3ccccc3)n2)c(O)c1`, the Potency is reported as active: 16.4 µM. With `COc1cccc(NC(=O)c2ccccc2NS(C)(=O)=O)c1` the Potency was active: 20.6 µM. In the case of `O=C(CCC(=O)c1ccc(Br)cc1)Nc1cccnc1`, the Potency is reported as “inactive”. For `CCCCOC(=O)C(C#N)c1nc2ccccc2nc1N1CCOCC1` (stereo not drawn), the Potency was inconclusive [inhibitor, partial curve, poor fit].

Source: PubChem BioAssay AID686978 (National Center for Advancing Translational Sciences (NCATS), 2013)
On the % scale 0 is the no-effect control and ±100 the full control effect; potency means the concentration at half of the fitted maximal effect; tags describe the fitted curve by direction and shape.
